± gives the standard deviation of the averaged measurements. The list shows a part of the results.
system: PfAP2-LT AP2 domain (GST-tagged); test: gcPBM binding intensity (ln(normalized median fluorescence intensity)); higher = stronger DNA binding
Procedure, shortened: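 Using an Agilent 4 × 180k array, primer-extended double-stranded 36-bp intergenic genomic probes and negative controls were exposed for 1 h to GST-fused P. falciparum DNA-binding domains expressed in E. coli. Binding was carried out in 1× PBS with 1% milk, 0.2 mg/ml BSA, 0.5% salmon testes DNA and 0.03% Triton X-100, and protein was detected with Alexa488 anti-GST antibody and a 488 nm scan. Binding intensity is the highest Masliner-normalised natural-log median intensity across replicate spots of either probe orientation.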

| Sequence | gcPBM binding intensity (ln) |
| --- | --- |
| AATACACAAATATATTGTACATATATATATATATAT [XGTACX_site2440] | 9.77 ± 0.16 |
| ACTTATTATTAATATTGTACTCTTGAAAATTGTGGA [XGTACX_site6315] | 8.57 ± 0.49 |
| CATATATAAATATAAATATATATATATATATATATG [XGTACX_negctrl_site493] | 8.82 ± 0.32 |
| ATATATATATATATATGTACATATGTATATTTTTTT [XGTACX_site1299] | 9.77 ± 0.44 |
| TTCTTCAAGGAAAACACATGCGCATTTTCACCAATT [TGCATGCA_site11] | 8.98 ± 0.43 |
| AAAATTATAATAATATGTACTTAAAAAATTTATATA [XGTACX_site632] | 8.35 ± 0.51 |
| TATATATATATATGTGCATGTTCCCCATGCTTCCAT [TGCATGCA_site366] | 9.86 ± 0.11 |
| AATATATATATATATAGTACATATTTTTATTCATTA [XGTACX_site2156] | 8.8 ± 0.28 |
| TATATGTATTTATATACACACATATTCTTTTGACAC [CACACA_site1206] | 9.13 ± 0.36 |
| TTTAAACAAGGATCCACACACCCCAAAAAAAAAAGA [CACACA_site680] | 9.26 ± 0.4 |
| TTTTTATTTTTGTAGTGTACTTTATTTTTTTTGTTT [XGTACX_site8887] | 8.89 ± 0.57 |
| TATATATATATATACACACACACACCCATATATATA [CACACA_site2538] | 10.2 ± 0.3 |
| CTGTATTCATAATTCACACAAATGGTTTATATGAAT [CACACA_site4315] | 8.71 ± 0.47 |
| CATACATACAGATATACACACATATATAATAATATA [CACACA_site5477] | 9.27 ± 0.37 |
| CATATTTGCACTTTCACACATAAATATATAACTATA [CACACA_site6016] | 8.9 ± 0.41 |
| TTACAAATGGTTTACACACACATAATTGTATCAATT [CACACA_site4167] | 9.24 ± 0.24 |
| TAATATATGAGAAATTGTACAGAAAGGAATATGCTT [XGTACX_site5300] | 8.79 ± 0.37 |
| TATATATGTTCAATATGTACATATATATAAGTGTAT [XGTACX_site5157] | 8.79 ± 0.41 |
| ATATTATTGTAGAAATGTACATATATATATATATAT [XGTACX_site1882] | 9.73 ± 0.32 |
| AAGAAATATTTATACACACACACAAACATATATATA [CACACA_site1912] | 9.8 ± 0.2 |
| CAAAAGTATAATAATACACACACTTTAAAAGTTAAA [CACACA_site3343] | 9.09 ± 0.48 |
| AAAAATAAAATAAAATAAAATAAACATACCATATGT [CACACA_negctrl_site594] | 8.79 ± 0.5 |

| Sequence | gcPBM binding intensity (ln) |
| --- | --- |
| TAGATTCTTGAATAAGTGCAAAATATAATATTTATT | 8.56 ± 0.42 |
| CATTTGATAAGATACACACACAAGGAAAAAAATAAA [CACACA_site350] | 9.48 ± 0.52 |
| TTATAATATCTATATATCTTTTACATTTATAAGTTT [CACACA_negctrl_site1473] | 8.56 ± 0.52 |
| TATAATAATATTAACACACGTACAAAAGCAAACAAC [CACACA_site3494] | 9.41 ± 0.27 |
| ATATATATATTCCACACACACACAAAAAAAAAAAAA [CACACA_site3648] | 9.57 ± 0.16 |
| TTTTTTTTTTTTTTTGCACACAGGGTGTAGGACAAG [CACACA_site2842] | 8.93 ± 0.36 |
| TATGGTGTAATTTAGTGTATTATATTATTTTGGTTG [GTGCAC_negctrl_site445] | 8.96 ± 0.49 |
| TTAGCTATGATATATACACACCAACGAACGAAGAAA [CACACA_site6657] | 8.98 ± 0.37 |
| GTCTATTCAAAAAAGTGTACGGACATATAAACATAC [XGTACX_site6516] | 8.96 ± 0.36 |
| TGCAGTCTGGAGAAAAGTACATAGTATCTGGTATCT [XGTACX_site2545] | 8.83 ± 0.37 |
| AGATATAGGAAAATAATATATATATATTTTTTTTTT [CACACA_negctrl_site461] | 8.45 ± 0.53 |
| ATATATATATATATATGTACTTATAAGGTATATTTA [XGTACX_site3327] | 9.38 ± 0.16 |
| ATTTATTTATTTATTTGTACATATAAATATATCAAA [XGTACX_site7383] | 8.54 ± 0.47 |
| TATATTTATTTATACACATGCATATTTTAAGGGCTC [TGCATGCA_site885] | 8.66 ± 0.44 |
| AGTATACAGATATATACACACATATATTTATTTATA [CACACA_site6279] | 9.07 ± 0.42 |
| AAAGATGTTATATATATGTATATATATATGTAATAT [TGCATGCA_negctrl_site386] | 8.72 ± 0.4 |
| CATATAATTATATATCGTACATATTAATATAATTAC [XGTACX_site401] | 8.68 ± 0.38 |
| TATAACTTTTTTATTACACACCTATGCAATATTATA [CACACA_site6570] | 8.81 ± 0.39 |
| TGGTTAATATGTGAAAGTACATATTATATTAAAATG [XGTACX_site2636] | 8.52 ± 0.53 |
| TACAGATAATATATTGCACACGTCAGAATAATATAG [CACACA_site5036] | 9.11 ± 0.43 |
| AACAAATAAATAAATAAAAAGCAAATATGTCTATAT [GTGCAC_negctrl_site414] | 8.96 ± 0.4 |
| ATAAAATAAGATCTTTTTTTTTTTTTTTTCTTTTCT [XGTACX_negctrl_site73] | 8.29 ± 0.6 |

| Sequence | gcPBM binding intensity (ln) |
| --- | --- |
| AATATACAATAAAGGTGTACACATATATGATGCAAG [XGTACX_site7607] | 9.39 ± 0.31 |
| TTATAATCCATAATTGCACACAATATATTCATATTT [CACACA_site3916] | 9.02 ± 0.52 |
| AAAAAGAAAAAACTTACACACATATATACAGACATG [CACACA_site550] | 9.14 ± 0.35 |
| AAAAAAAAATAAATAAATATATATAATATTTATGTT [GTGCAC_negctrl_site520] | 8.4 ± 0.47 |
| TTATATATTTATATTTGTACGTATAAATTTTTTTTT [XGTACX_site2833] | 8.7 ± 0.54 |
| AAACAAAGAAAGAACACACATACACAATATACCTAC [CACACA_site2835] | 9.59 ± 0.3 |
| ATATATGTGTATGTATGTACTCATTTTTGTATATAT [XGTACX_site490] | 9.02 ± 0.35 |
| ATAATGATATATTATAAACACACAAAGATGAATATA [CACACA_site8914] | 8.93 ± 0.38 |
| CATTTAAATTATAAGTGTACACGATCATATTTCATC [XGTACX_site349] | 8.79 ± 0.47 |
| TATTTTGAAAAAGTTGCACACAAAATTTAAAAAAAA [CACACA_site8470] | 8.68 ± 0.51 |
| TACATTCATGTGTATTGTACAAACTATTTTATAATA [XGTACX_site7744] | 8.68 ± 0.34 |
| GCATATTTTATAATTTTACACACCATATAAAATAAT [CACACA_site8904] | 8.79 ± 0.43 |
| TATATAATATATATAGTGCATAAGTTCAAAAGAATA [GTGCAC_site9805] | 8.84 ± 0.42 |
| ACAATCCTAACGACATGTACAAATATATATATTTTT [XGTACX_site7335] | 8.9 ± 0.4 |
| TACATATTTTTTATGTGTACATATTTTTTATGTGTA [XGTACX_site443] | 8.92 ± 0.45 |
| AAATAAAAACATAACAGTACAGTTAACATTTTTATA [XGTACX_site3479] | 8.71 ± 0.39 |
| TATATATATATATATGTACACACATATATACCTTTC [CACACA_site8854] | 10 ± 0.24 |
| CCAACATTTTTTAGAAGTACATTTTTATATTTATTA [XGTACX_site5179] | 8.29 ± 0.45 |
| GATGGAAGGTGAAAGCGTACTTATTATAGTAATATA [XGTACX_site303] | 8.81 ± 0.42 |
| AGGTACTTTTTTAAAACACACATATAATATATACAC [CACACA_site1065] | 8.88 ± 0.35 |
| TGTAATAATCTTACATGTACATACATATATTATATA [XGTACX_site4012] | 8.71 ± 0.48 |
| TTTTTTTTTTTTTCAAGTACATAACTTACCCCTTTT [XGTACX_site6207] | 8.43 ± 0.6 |

| Sequence | gcPBM binding intensity (ln) |
| --- | --- |
| TTATATGCATAAAAACGTACAAAAATGTATTCATGT [XGTACX_site2215] | 8.89 ± 0.38 |
| AGGATATGCAGACACACACACATATATATATATATA [CACACA_site2201] | 10.3 ± 0.23 |
| TTTTTTAATAATAGGAAAATGAATATTATATCGAAT [TGCATGCA_negctrl_site543] | 8.25 ± 0.47 |
| GTTATAGAAGCATTCACACACACACCCACATACACA [CACACA_site1465] | 10.1 ± 0.11 |
| GAATGTTAACGTTGCACACAAAAAAAAAGTATACAT [CACACA_site2415] | 9.21 ± 0.42 |
| AAACGATTACTGTGTACACACATAGTTATAAACATA [CACACA_site5195] | 9.14 ± 0.45 |
| TTACATAATATATGTACACACGCAAATACTTAGAAT [CACACA_site320] | 9.12 ± 0.37 |
| ATGGTTAAAAAAAGCATACACACTATCCTCTTTGCT [CACACA_site2552] | 8.97 ± 0.54 |
| TTTGTTGACGGACACACACACATACAGATATATATA [CACACA_site5292] | 9.4 ± 0.27 |
| ATAATAAATTATTATGTACACACATAATAGTATATA [CACACA_site8538] | 9.04 ± 0.42 |
| TAGATACATAAAAGTGGTACATATATATATATATAT [XGTACX_site6263] | 9.96 ± 0.35 |
| AATATTTATATTTACACACACATAATACCTATATGT [CACACA_site6167] | 9.54 ± 0.34 |
| TGGAAATTCTCAGGAGTGCATATTTGCAGTTTACGT [GTGCAC_site9768] | 8.89 ± 0.47 |
| ATATTTTTTTTTTTTTGTACATATATCATTATATAT [XGTACX_site866] | 8.97 ± 0.49 |
| TGGTTACTGTCATTAGTTATTTCTTGTTGACAATTA [CACACA_negctrl_site416] | 8.79 ± 0.41 |
| TTTTTGTCTGCATACGCACACACGTGTACCATCTTA [CACACA_site1173] | 9.64 ± 0.34 |
| CCGTTGAACATATATGCACACACATAAAATAAAAAA [CACACA_site8761] | 9.38 ± 0.42 |
| TATTTTTCCATATGCACACACACCGTATCTAGAATA [CACACA_site6654] | 9.47 ± 0.37 |
| GGATTTTTCGAATCATGTACATATTTAATTAAAAAA [XGTACX_site7939] | 8.34 ± 0.45 |
| TACATAAACATTTATACACACATTATGTATACATAT [CACACA_site405] | 9.15 ± 0.4 |
| TAGAATGTATGTAGTGCACACCTCTATAATATATTA [CACACA_site1873] | 8.93 ± 0.38 |
| AACTTTGGCAAACACACACACACACCCACACCCACA [CACACA_site588] | 10.1 ± 0.42 |
